Reference: PubChem BioAssay AID504339 (National Center for Advancing Translational Sciences (NCATS), 2011)
Hit rate of the full screen: of about 390,000 compounds, about 17,000 (4.4%) were called active. This list was built around the results that the source calls inconclusive (neither active nor inactive); the mix of calls is not that of the screen. Calls come from the whole dose curve; as a rule, active = well fitted inhibition curve with a large enough effect; inconclusive = small, poorly fitted or top-dose-only effect; inactive = no such curve, though single readings can be large or run the other way. Potencies of inconclusive entries are doubtful fits and often do not repeat.
% is set by controls: 0 for no effect and ±100 for the full control effect; potency is the fitted concentration of half-maximal effect; tags give direction and shape of the fitted curve.
Note: nearly all actives have a fitted effect of over 50% in size.

The compounds below were run against Lysine-specific demethylase 4A (Homo sapiens) (UniProt O75164) (assay: qHTS Assay for Inhibitors of JMJD2A-Tudor Domain). Conditions: AlphaScreen JMJD2A-Tudor / H3K4me3 peptide binding; activity change, negative = inhibition: at 114 µM (top of the series).
UniProt O75164, sequence (O75164 whole entry, looked up, the tested form may be a part): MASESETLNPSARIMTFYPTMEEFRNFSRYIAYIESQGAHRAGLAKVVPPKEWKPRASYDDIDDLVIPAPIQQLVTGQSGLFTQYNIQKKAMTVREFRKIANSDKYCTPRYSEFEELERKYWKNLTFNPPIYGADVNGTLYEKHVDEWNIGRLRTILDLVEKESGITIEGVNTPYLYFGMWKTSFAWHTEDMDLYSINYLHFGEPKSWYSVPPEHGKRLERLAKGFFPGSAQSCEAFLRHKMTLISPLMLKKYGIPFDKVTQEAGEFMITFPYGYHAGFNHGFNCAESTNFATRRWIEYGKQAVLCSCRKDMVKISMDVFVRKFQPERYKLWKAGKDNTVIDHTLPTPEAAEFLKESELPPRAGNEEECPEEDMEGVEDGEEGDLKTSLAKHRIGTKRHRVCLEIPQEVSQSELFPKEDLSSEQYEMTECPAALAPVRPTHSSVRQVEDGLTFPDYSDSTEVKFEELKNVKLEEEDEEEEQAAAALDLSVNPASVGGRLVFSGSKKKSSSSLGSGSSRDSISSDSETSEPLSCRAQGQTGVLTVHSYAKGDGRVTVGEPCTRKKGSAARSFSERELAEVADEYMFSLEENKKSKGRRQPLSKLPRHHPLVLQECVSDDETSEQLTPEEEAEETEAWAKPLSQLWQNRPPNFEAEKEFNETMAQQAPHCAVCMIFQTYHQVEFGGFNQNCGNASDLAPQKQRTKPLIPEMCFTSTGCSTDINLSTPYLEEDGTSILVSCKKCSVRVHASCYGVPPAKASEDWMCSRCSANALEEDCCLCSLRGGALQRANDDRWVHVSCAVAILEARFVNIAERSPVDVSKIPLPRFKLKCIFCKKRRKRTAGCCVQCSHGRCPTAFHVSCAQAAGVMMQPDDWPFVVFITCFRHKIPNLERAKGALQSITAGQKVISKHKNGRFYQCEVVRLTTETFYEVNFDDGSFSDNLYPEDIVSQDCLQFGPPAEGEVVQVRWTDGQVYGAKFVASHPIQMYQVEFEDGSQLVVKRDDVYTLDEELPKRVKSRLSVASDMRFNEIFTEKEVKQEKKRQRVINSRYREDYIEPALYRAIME
`CCC1CCCCN1CCCNC(=O)c1ccc2c(c1)c(C)c(C)n2C` (centres undefined) was tested, and the Potency was inconclusive: 50.1 µM [inhibitor, partial curve].
In the case of `CCOC(=O)c1c(NC(=O)c2cc(-c3ccc(Br)cc3)on2)sc(C)c1C`, the “activity change, negative = inhibition” value is reported as inactive: -18.8%.
In the case of `CCN(c1ccccc1)S(=O)(=O)c1ccc(Cl)c(NC(=O)CN2CCCCCC2)c1`, the Potency is reported as active: 0.708 µM.
In the case of `O=C1CCCCC1Sc1ccc(Cl)cc1[N+](=O)[O-]` (centres undefined), the Potency is reported as inconclusive: 56.2 µM [inhibitor, partial curve].
With `CCOc1ccc(Nc2nc(Cc3nnc(SCC(=O)NC4CCCC4)n3C)cs2)cc1` the Potency was inconclusive: 79.4 µM [inhibitor, partial curve].
For `CCn1cc(/C=N\NC(=O)c2ccc3c(c2)c(C)c(C)n3Cc2ccccc2)c(C)n1`, the Potency was inconclusive: 22.4 µM [inhibitor, full curve].
For `COC(=O)c1ccc(C(=O)OC)c(NC(=S)N2CCC(C)CC2)c1`, the Potency was inconclusive: 3.16 µM [inhibitor, partial curve, poor fit].
In the case of `CC1(c2cc([N+](=O)[O-])cc([N+](=O)[O-])c2)CC(C)(C)N(C(=O)c2ccccc2)c2ccccc21` (centres undefined), the Potency is reported as inconclusive: 11.2 µM [inhibitor, full curve].
`CC1=CC(C)(C)N2C(=O)C3(SCC(=O)N3c3ccc(F)cc3)c3cc(C)cc1c32` (centres undefined) was tested, and the Potency was inconclusive: 56.2 µM [inhibitor, partial curve].
`CCCCCCCCSc1nnc2[nH]c(=O)cc(N)n12` was tested, and the Potency was active: 11.2 µM.
With `COc1ccc(S(=O)(=O)N2CCc3ccccc32)cc1C(=O)NCCc1ccc(S(N)(=O)=O)cc1` the “activity change, negative = inhibition” value was inactive: -15.7%.
With `COc1ccccc1/C=C/C=N/n1c(C2CCCCC2)n[nH]c1=S` the Potency was inconclusive: 44.7 µM [inhibitor, single point].
For `COc1ccccc1N=Nc1[nH]c2ccc(C)cc2c1O`, the Potency was inconclusive: 35.5 µM [inhibitor, single point].
`O=C(Nc1ccc2cn[nH]c2c1)c1c(Cl)cccc1Cl` was tested, and the Potency was inconclusive: 70.8 µM [inhibitor, single point].
`Cc1csc(C(=O)O)c1NC(=O)c1c(Cl)cccc1Cl` was tested, and the “activity change, negative = inhibition” value was inactive: -4.63%.
With `CCOc1ccc(CCNC(=O)Cn2ccc3cc(S(=O)(=O)N4CCCCCC4)ccc32)cc1` the “activity change, negative = inhibition” value was inactive: -8.28%.
For `CCC1CN(C(=O)C2CCN(S(=O)(=O)c3c(C)noc3/C=C/c3ccc(C)cc3)CC2)c2cc(C)ccc2O1` (centres undefined), the “activity change, negative = inhibition” value was inactive: -0.639%.
For `CC(=O)Nc1sc2c(c1C(c1cccc(F)c1)N1CCN(CCO)CC1)CCCC2` (centres undefined), the Potency was inconclusive: 56.2 µM [inhibitor, partial curve].
For `O=C(Cc1cccs1)Nc1ccc(S(=O)(=O)N2CCCC2)cc1`, the Potency was inconclusive: 56.2 µM [inhibitor, partial curve].
In the case of `O=c1c2c(C(F)(F)F)cc(C(F)(F)F)nc2[nH]n1-c1ccccc1`, the Potency is reported as inconclusive: 35.5 µM [inhibitor, full curve, poor fit].
`N=C1SCC(=O)N1c1nc(-c2ccccc2)cs1` was tested, and the Potency was inconclusive: 89.1 µM [inhibitor, single point].
In the case of `COc1ccc(-c2nn(-c3ccccc3)cc2/C=C\C(=O)Nc2ccc(C(=O)O)cc2)cc1`, the Potency is reported as inconclusive: 89.1 µM [inhibitor, partial curve].
With `O=C(CCc1ccc(O)c(O)c1)N/N=C/c1ccc2c(c1)OCO2` the Potency was inconclusive: 70.8 µM [inhibitor, partial curve].
With `O=C1C=CC(=O)C(C2=C3C(=O)N(CCc4ccccc4)CC(=O)N3CCC2)=C1` the Potency was active: 3.16 µM.
In the case of `O=C(COc1c(Cl)cccc1Cl)Nc1ccccc1N1CCCC1`, the Potency is reported as inconclusive: 56.2 µM [inhibitor, partial curve].
`CCN(c1ccccc1)S(=O)(=O)c1csc(C(N)=O)c1` was tested, and the Potency was inconclusive: 22.4 µM [inhibitor, full curve, poor fit].
`Cc1cccc(N2CCN(C(=O)C3CCCN(C(=O)c4cc5sccc5n4C)C3)CC2)c1C` (centres undefined) was tested, and the Potency was inconclusive: 31.6 µM [inhibitor, full curve].
For `Cc1cc(N=Nc2c(O)c3ccccc3[nH]c2=O)ccc1N=Nc1ccc(C(=O)N(C)C)cc1`, the Potency was inconclusive: 56.2 µM [inhibitor, partial curve, poor fit].
With `Cc1ccccc1NC(=O)c1ccc(S(=O)(=O)N2CCCC2)cc1` the “activity change, negative = inhibition” value was inactive: 4.29%.
For `O=C(C1CCC(CNS(=O)(=O)c2cccs2)CC1)N1CCN(c2ccc(Cl)cc2)CC1` (centres undefined), the Potency was “inactive”.
In the case of `O=C1CC(N2CCN(S(=O)(=O)c3ccccc3F)CC2)C(=O)N1c1ccccc1Cl` (centres undefined), the “activity change, negative = inhibition” value is reported as inactive: -4.79%.
With `COc1ccccc1-n1c(-c2ccccc2)c[nH]c1=S` the Potency was inconclusive: 20 µM [inhibitor, single point].
With `O=C(NC1CCC(O)CC1)c1cc(-c2ccco2)nc2ccccc12` (centres undefined) the Potency was inconclusive: 44.7 µM [inhibitor, partial curve].
For `O=c1cc2nc(-c3ccccc3F)nc(SCc3ccc(Br)cc3)n2[nH]1`, the Potency was inconclusive: 56.2 µM [inhibitor, partial curve].
`CCOC(=O)c1c(C)[nH]c(C)c1S(=O)(=O)N1CCCC(C(=O)Nc2ccc(OC)c(OC)c2)C1` (centres undefined) was tested, and the “activity change, negative = inhibition” value was inactive: -18.3%.
For `COc1ccc(-c2cc(C(=O)N3CCN(c4ccccc4O)CC3)c3ccccc3n2)cc1OC`, the Potency was inconclusive: 28.2 µM [inhibitor, full curve, poor fit].
With `C/C(=N\O)c1ccc2c3c([nH]c2c1)CCCC3` the Potency was inconclusive: 39.8 µM [inhibitor, partial curve].
For `CC(C)CCOP(=O)(c1ccc(N(C)C)cc1)C(O)c1ccc(N(C)C)cc1` (centres undefined), the Potency was active: 7.08 µM.
For `Cc1onc(-c2ccccc2)c1-c1nnc(CN2CCN(S(=O)(=O)c3ccccc3F)CC2)o1`, the “activity change, negative = inhibition” value was inactive: -12.8%.
For `Cc1ccc(OCC(O)CN2CCOCC2)c(C)c1` (centres undefined), the Potency was active: 89.1 µM.
For `C[C@H](NC(=O)c1nc[nH]c1C(=O)NCCCCCN)C(=O)OC(C)(C)C`, the Potency was active: 56.2 µM.
`CCN(CC)S(=O)(=O)c1ccc(C(=O)Nc2cc(S(=O)(=O)N3CCOCC3)ccc2N2CCN(C)CC2)cc1` was tested, and the Potency was inconclusive: 31.6 µM [inhibitor, partial curve].
`CC1(C)CCc2cc(-c3ccnc(=S)[nH]3)ccc2O1` was tested, and the Potency was inconclusive: 0.631 µM [inhibitor, full curve, poor fit].
`Nc1cc(=O)[nH]c(SCC(=O)N2N=C(c3ccc(Cl)cc3)CC2c2ccco2)n1` (centres undefined) was tested, and the “activity change, negative = inhibition” value was inactive: -17.1%.
In the case of `COc1ccc2[nH]c(S(=O)Cc3ncc(C)c(OC)c3C)nc2c1` (centres undefined), the Potency is reported as active: 50.1 µM.
In the case of `Brc1ccc(-c2nc(N3CCN(c4ccccc4)CC3)c3ccccc3n2)cc1`, the Potency is reported as inconclusive: 89.1 µM [inhibitor, partial curve].
With `CCN(CC)CCn1c(NCc2ccccn2)nc2ccccc21` the Potency was inconclusive: 39.8 µM [inhibitor, single point].
For `Cc1cccc2cc(/C=N/Nc3ccc(C(=O)O)cc3)c(Cl)nc12`, the Potency was inconclusive: 79.4 µM [inhibitor, single point].
In the case of `CCN(CC)C(=O)COC(=O)c1cc(-c2ccc(OC)cc2)nc2ccccc12`, the “activity change, negative = inhibition” value is reported as inactive: 25.6%.
`O=C1OC(/C=C/c2ccccc2)=NC/1=C\c1cccnc1` was tested, and the “activity change, negative = inhibition” value was inactive: 0.738%.
For `COCCn1c(=S)[nH]c2cc(C(=O)NC(C)C)ccc2c1=O`, the Potency was inconclusive: 100 µM [inhibitor, single point].
In the case of `O=C(CN1C(=O)COc2ccc(S(=O)(=O)N3CCCC3)cc21)NCCc1ccc(Cl)cc1`, the “activity change, negative = inhibition” value is reported as inactive: -15.3%.
For `Cc1ccc(OCCNc2cc(N3CCN(CCO)CC3)ccc2[N+](=O)[O-])cc1C`, the Potency was inconclusive: 28.2 µM [inhibitor, single point].
`Cc1cccc(NCc2ccc(O)c3ncccc23)c1C` was tested, and the Potency was inconclusive: 15.8 µM [inhibitor, single point].
In the case of `CCOc1c(C)cc(S(=O)(=O)NCc2ccccn2)c(C)c1C`, the Potency is reported as inconclusive: 20 µM [inhibitor, partial curve].
For `Nc1nnc(SC2CC(=O)N(c3ccccc3)C2=O)s1` (centres undefined), the Potency was active: 44.7 µM.
`Cc1ccc2c(CC(=O)O)coc2c1` was tested, and the “activity change, negative = inhibition” value was inactive: -10.9%.
For `CCOC(=O)c1c(-c2ccc(OC)cc2)csc1/N=C/C1C(=O)CCCC1=O`, the Potency was inconclusive: 25.1 µM [inhibitor, single point].
With `COc1ccc(C2N(c3ccccc3)C(=O)C2(F)F)cc1OC` (centres undefined) the “activity change, negative = inhibition” value was inactive: 1.02%.
With `Cc1ccc(C(C)C)c(OCc2ccc(C(=O)Nc3ccc(S(N)(=O)=O)cc3C)o2)c1` the Potency was inconclusive: 50.1 µM [inhibitor, partial curve].
With `CN(C)CCNc1nc2sc3c(c2c(=O)n1CCc1ccccc1)CCCCC3` the Potency was active: 50.1 µM.
In the case of `O=C(COc1ccccc1Cl)N1CCN(c2ccc([N+](=O)[O-])c(N3CCOCC3)c2)CC1`, the Potency is reported as inconclusive: 22.4 µM [inhibitor, full curve, poor fit].
`c1ccc2oc(-c3csc(NCC4CCCO4)n3)cc2c1` (centres undefined) was tested, and the Potency was inconclusive: 63.1 µM [inhibitor, partial curve, poor fit].
In the case of `CCN1C(=O)CC(c2ccccc2)N(C2CCCC2)c2nc(Nc3ccc(C(=O)NC4CCN(C)CC4)cc3OC)ncc21` (centres undefined), the Potency is reported as inconclusive: 50.1 µM [inhibitor, partial curve, poor fit].
In the case of `Cc1nn(-c2ccccc2)c(C)c1/C=N\NS(=O)(=O)c1ccc(Cl)cc1`, the “activity change, negative = inhibition” value is reported as inactive: -31.3%.
With `CCCn1nnnc1NCc1ccc(N(C)C)cc1` the Potency was inconclusive: 89.1 µM [inhibitor, single point].
With `O=C(CSc1nc2ccccc2o1)N/N=C/c1ccc(O)c(O)c1` the Potency was active: 15.8 µM.
For `c1ccc(CCc2nn3c(Cn4nnc5ccccc54)nnc3s2)cc1`, the Potency was inconclusive: 79.4 µM [inhibitor, single point].
With `COC(=O)CSc1nnc(-c2cccc(O)c2)o1` the “activity change, negative = inhibition” value was inactive: -18.4%.
